Here are results for one substance from FireProtDB (doi:10.1002/pro.5560041011).

For the data set the following is noted: Gallus gallus; pH 6.4; Thermal; CD; Potassium phosphate 66 mM; reversible: yes.

The term Tm denotes the temperature at the midpoint of the melting transition. Take “Lysozyme C wild type (sequence left out)”: the Tm worked out at 74 °C.
